29 molecules from the supplement of paper PMC12632987 can be followed below.

In all, about 4,500 sequences were measured (“median log2 fold change of GCK-ALFA target abundance (FLAG IP / Myc IP barcode read proportion)”: median about 0.078, lowest 2% from about -0.6 on). The list shows a part of the results.

To fix the notation:
B1: GBRAP_35_5533 (protein)
chain: NSDEEIAEMLLNTMEALVDALPDVSPEQQLALARHLIRLAEDFLELKTKSAELIKRLIEVLERAIELIKKSSLPPEQQEELIRELEELRERAKELLKEVE
B2: GBRAP_45_5802 (protein)
chain: DAALAAAKKELRELLEKILEEVKKLLEKDPETFGKVKELIEKALKLLDAGPDTVEKAQELLELVEEALKLLASSPHATGELLDLALEAVNKAADILELLK
B3: GBRAP_160_4297 (protein)
chain: MEKVEKALKFIDEEAEEIISELPNVSHEQAVVLVAGRFGEIIRYLEEEEVVSDEDLEKIDEIVRETVEYLKSHPDLSVEEIKEKIKEAAEKIKKIIKEEA
B4: GBRAP_52_6280 (protein)
chain: SMEEVEATAKEIIALVKAGDLEGAIAKAKEAVKKFSLEEVLELGNLLIEAIAELPDEQVDLMMEVVDTLADELEKRFGEESLADVLRARAAAAAYARLQA
B5: GBRAP_128_3353 (protein)
chain: LDEEFLAEVEETVERMKEADVEEVYELTRELVDRISKASPEEQEAAFEILRKALPEFDAEKLEAIADAIEEKLPELDPYTAELAADVLVEALNLAEEKEE
B6: GBRAP_52_6093 (protein)
chain: MEEKIKEYAEKILEAAKAGDVEKVTELLLKAVEELSDEEVLEMGRLFADLASKLPKEELEKVTEVVIEALDKVAEKTGKEELMDELEAYLAAKAYKALQK
B7: GBRAP_160_4432 (protein)
chain: SEKLEKAKKEIKELFEETLEMMKGQTAEERITVLRVTEGEIKLMLEELGLLTDEVDKVIDEVFDEIIAYVEANPDITDEELKELLEEAVKKIEEELEKVS
B8: GBRAP_160_4378 (protein)
chain: SEELKELREDVEELRKEFEEEAKDLSTEEVRTLAIGVLAEVAADVWSNEAISEETKDKIMEIIDEAIEKLRENADASPEEIVKITTEALDKIIELIKEEE
B9: GBRAP_11_2772 (protein)
chain: KAEELKEAAKLAEELAKLAEELIEKGPDDEELLKELEKKLEELKKLTEKYGSEAQKKDVELIEELFKEMLEDPENAEEYLKELRNQALVLSGQFLLDAEE
B10: GBRAP_52_5961 (protein)
chain: MREKMEKLVNELLELKKEGKEEEMRKKLKEIAETLNEEELELLAEVMAEKVKESNLEEAEILLDIALELGDVLIEEGRDEGIASYIEALVAAAAYELEQK
B11: GBRAP_128_3175 (protein)
chain: SVEEVRERTREAMERIRNSSPEEAREIAEELFTWLGTLSLEEAEAAVEVILEMLPELTAEHLEIVADVAREHRPLFTPEKAELVAEVEVEALNLAEELEE
B12: GBRAP_125_3096 (protein)
chain: HMEEILEALKLLAKALGFSEEEAEELARLAANSSVKQTLYALFAAEGYEELADLVEKLTEEQAKEVLLELAKWLKENPNASKEEVVKKAKELAKKALAKA
B13: GBRAP_55_6438 (protein)
chain: MTDEEMHQEAIDDTVEMLRDAALDTDTFVRLALALADLLEPGEEVTVEIVVEDPEDAERALAAAEAAKAALEARGYEATIEVEERPDGSTVIRLTIRRPA
B14: GBRAP_78_6663 (protein)
chain: KVEELIDKALEELSKAAKLTKELPEEDRNEVLDLLVDAASDLVEAEEEGGDLKLLEEALKELEKAIKLLEELKTEEAAKVLKEVKKAKEYVKKAIKELKK
B15: GBRAP_128_3436 (protein)
chain: SSEELLKKAKELIEKILKASVEEVYELTKELLELFDTLSDEDAEKVAEYFISKIPKLSKEKLEAVADAIREQRPKLSPYKANLANEVEVEALNQILELEE
B16: GBRAP_52_6318 (protein)
chain: MRERAEELAERLVKLVKEGKLEEAKALAKEIAENESLEFLELLAEVLAERILTADEEERDALLEATEILAEALIEAGHDEAFASDIIARAAAAGYEAELR
B17: GBRAP_137_3672 (protein)
chain: MIDAKIEIEDGLAYAELTYKGSLEEAKKAAEIAEEIAGKIPGIAISTKVDEDGTLTIDLGGTLEQIMKFLKELAKALNVTINVTIKDLDTGETTKETIKA
B18: GBRAP_52_6167 (protein)
chain: MEERAKEYAEKLLAAVKAGDEEKVEEILKEIAETMNDEEIELFLDHVAKAVAGLTPEDKERVVEAALRFEDIAIEAGHDEELLDYHVARVAGAAYDALQA
B19: GBRAP_14_3795 (protein)
chain: KEEKIKAIEEAREEALKLAESLPEEVRELLERILREATEELKEGIEKNEIDLDGVAEILDEHIEKLKEEVKPFPEEHRNEAIAIFNDYAGDVLLELEELE
B20: GBRAP_160_4351 (protein)
chain: MERVEKLIKEIREATEEVIEALDEVSVEEAATLAAGEFGSVAMEAALDERMSDEMVDAVIKGMDEAVAALKEMADASVEERKKKLREITEKTIEELKKIA
B21: GBRAP_131_3605 (protein)
chain: LKGLLATIDEPLSVEEALARVDEIVAEAVAQGADALVIRLRNQSEEVYEAALERADELDERLEKERGMKIVVLPPGTTEAEAQNILQALLDEVELEKEEE
B22: GBRAP_160_4534 (protein)
chain: SEFLEEAERELEETAEEAIELMKGQTAEQRATIADVEFGSFALELAEDPRASDEMVDVVLDNRDKLVATILANPDLTDEELEALIEETREKTIEELRKLF
B23: GBRAP_53_6393 (protein)
chain: KEEEIKKLIEELKKLIEELKKADAEEAVKLAKEAAEVLVKLAELGLPEEELVKLVKEFAEAVKDRPELEPVLIALAKRLAALGREEAAAEAAEALVEELE
B24: GBRAP_39_5628 (protein)
chain: EEEEELELLESLAEAELEKRRVETGLPLDELYARLLAEALKKVADNPELLAAIKELAALAEEKGEEAKERLAAILAALLAGEPLEDILRLVKAEIAKLKA
B25: GBRAP_160_4841 (protein)
chain: SAKAEKVKKELNEARDFVLSLVDEVSVEQLANAFDTEFSSVLEELYEEGVINEEAEDAGMAIVDEGVAALLAAKDASPEEIRALIKETVDKLIKTIEKLL
B26: GBRAP_78_6719 (protein)
chain: ELEELLDKAIETLNEAAKLALELPEEKSNELLDLLVEAINLLMEIIEENLPKEEAIKLLEEAIKLLEKALELLGGENPELKAKVEEAKKLVEKALKLAKK
B27: GBRAP_160_4500 (protein)
chain: SEKVERAIKELEELAELAIEAMKEVSDKDAVKIFRAYAGEMIELLREEANISEETEEKLDKILEELVKEMEAIKNLTPEQIEEIVNRFKEKAIELLKEES
B28: GBRAP_184_5025 (protein)
chain: RVVERTIEAADLAELEARLAALREEVAGTGADLIVLADIEDPTVEQIRTLLRALGALKREGLVSSVTVGFARELTEEQTDVALATADEEGIRVVLAISDE
B29: GBRAP_52_6131 (protein)
chain: MEERARRLVEELVELLKAGREEEAEELARRIARELSDEEIRLIADALAELIREASPEEAEYLFEAAELLAEELEEEGRDEALADYVLSRAAAALYERELK

GABARAP, O95166, sequence (O95166 whole entry, the tested form may be a part): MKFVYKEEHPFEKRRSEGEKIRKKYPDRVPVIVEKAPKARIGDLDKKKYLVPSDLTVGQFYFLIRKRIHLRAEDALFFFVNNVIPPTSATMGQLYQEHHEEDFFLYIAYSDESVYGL

The target of this test is GABARAP, O95166. The test can be described thus: median log2 fold change of GCK-ALFA target abundance (FLAG IP / Myc IP barcode read proportion) (log2 ratio); each designed protein is fused to an ALFA-tag nanobody in HEK293 cells to bring the named protein to FLAG-tagged glucokinase (GCK); Myc marks an untargeted standard; higher = target protein stabilised (more abundant). As to conditions: target protein: 3xFLAG-MCP-GCK-ALFA reporter; HEK293 landing pad (RPLP). The gist of the method:
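The readout is target abundance, the per-binder median log2 ratio of FLAG to Myc barcode read proportions. It came from HEK293 landing-pad cells carrying a recombined ALFA-nanobody-fused binder library, induced with 2 μg mL^−1 doxycycline and transfected with a plasmid for a FLAG-tagged target and a Myc-tagged standard. After 48 h, lysates were immunoprecipitated with anti-FLAG and anti-Myc, and circular RNA barcodes were reverse transcribed, amplified and sequenced. Each barcode needed a proportion of at least 10^−7 in both replicates and each binder at least 3 barcodes per replicate, a pseudocount of 10^−6 was added, and the replicates were pooled.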
Consider B1, for which the “median log2 fold change” value was -0.115.
As to B2, the “median log2 fold change” value is -0.181.
As for B3, the “median log2 fold change” value was 0.0843.
Regarding B4, the “median log2 fold change” value worked out at 0.228.
On to B5, for which the “median log2 fold change” value was -0.128.
The value for B6 was 0.0741; that for B7 was 0.217.
For the molecule B8, the “median log2 fold change” value was -0.0653.
As to B9, the “median log2 fold change” value is 0.288.
Consider B10, for which the “median log2 fold change” value was -0.261.
Turning to B11, the “median log2 fold change” value worked out at 0.269.
On to B12, for which the “median log2 fold change” value stood at 0.229.
The value for B13 was 0.146; that for B14 was -0.19.
In the case of B15, the “median log2 fold change” value came to 0.166.
As for B16, the “median log2 fold change” value was found to be 0.11.
The value for B17 was 0.117.
B18: the “median log2 fold change” value is -0.0719.
On to B19, for which the “median log2 fold change” value came out at 0.092.
In the case of B20 it was -0.319; in that of B21, 0.0781.
Turning to B22, the “median log2 fold change” value is -0.346.
As for B23, the “median log2 fold change” value stood at 0.237.
The value for B24 was 0.347; that for B25 was -0.131.
B26: the “median log2 fold change” value was determined as 0.394.
For the molecule B27, the “median log2 fold change” value amounted to 0.184.
Regarding B28, the “median log2 fold change” value came out at 0.101.
B29: the “median log2 fold change” value is -0.469.
